# Experimental data taken from publication PMC5540273 (PLoS ONE, 2017).
# pKd: −log10 of the molar value. For some assays here: The strong results were mostly taken out for another list; the other results follow. This is a selection; strong and weak results do not stand in their true shares. This is one part of the list.
# Columns and labels:
# AAK1 = settings: concentration: 1 μM,replicates: in singlicate; n = 1
# ABL1-nonphosphorylated = settings: concentration: 1 μM,replicates: in singlicate; n = 1
# ABL1-phosphorylated = settings: concentration: 1 μM,replicates: in singlicate; n = 1
# ABL2 = settings: concentration: 1 μM,replicates: in singlicate; n = 1
# ACVR1B = settings: concentration: 1 μM,replicates: in singlicate; n = 1
# ACVR1 = settings: concentration: 1 μM,replicates: in singlicate; n = 1
# ACVR2A = settings: concentration: 1 μM,replicates: in singlicate; n = 1
# ACVR2B = settings: concentration: 1 μM,replicates: in singlicate; n = 1
# YANK2 = system: T1, YANK2
# T1 construct: gene STK32B
# 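Throughout, for %Inh: KINOMEscan kinase panel screen.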
# 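Throughout, for pKd: kd values determined as follow-up on hits from a single-replicate KINOMEscan panel screen.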
Compound,%Inh (AAK1),%Inh (ABL1-nonphosphorylated),%Inh (ABL1-phosphorylated),%Inh (ABL2),%Inh (ACVR1B),%Inh (ACVR1),%Inh (ACVR2A),%Inh (ACVR2B),pKd (ZAP70),pKd (YANK2)
CS(=O)(=O)c1ccccc1-c1nc(-c2ccc(F)cc2)c(-c2ccncc2)[nH]1 [SB-213663],0%,53%,0%,0%,4%,0%,0%,0%,–,–
O=C1NC(=O)C(c2ccccc2Cl)=C1Nc1ccccc1 [SB-376715],5%,0%,0%,1%,0%,20%,0%,0%,–,–
O=C1NC(=O)C(c2ccc(Cl)cc2)=C1Nc1cccc(O)c1 [SB-333613],27%,0%,3%,0%,10%,0%,19%,10%,–,–
O=C(O)c1ccc(-c2nc(-c3ccc(F)cc3)c(-c3ccncc3)[nH]2)cc1 [SB-202620],3%,56%,49%,1%,71%,7%,0%,43%,–,–
O=C1NC(=O)C(c2ccc(Cl)cc2)=C1Nc1ccc(O)c(Cl)c1 [SB-405367],27%,34%,15%,0%,0%,0%,24%,0%,–,–
O=C1NC(=O)C(c2ccccc2Cl)=C1Nc1cccc(C(=O)O)c1 [SB-390526],0%,0%,99.3%,10%,22%,0%,0%,0%,–,–
O=C1NC(=O)c2c1c(-c1ccccc1)cc1[nH]c3ccc(O)cc3c21,–,–,39%,18%,25%,0%,0%,0%,–,–
O=C1NC(=O)C(c2ccc(Cl)cc2)=C1Nc1ccccc1 [SB-317661],0%,12%,30%,0%,0%,0%,0%,0%,< 5.00,–
Cc1cc(C)cc(Oc2nccc(-c3c(-c4ccc(F)cc4)ncn3C3CCNCC3)n2)c1.O=C(O)C(F)(F)F.O=C(O)C(F)(F)F.O=C(O)C(F)(F)F [SB-284851],13%,45%,35%,1%,0%,0%,0%,14%,–,6.80
CSc1ccc(NC2=C(c3cccc(Cl)c3)C(=O)NC2=O)cc1 [SB-341528],0%,11%,15%,0%,0%,0%,24%,0%,–,–
O=C1NC(=O)C(c2ccccc2)=C1Nc1ccc(Cl)c(C(=O)O)c1 [SB-390532],8%,20%,3%,11%,0%,0%,0%,1%,–,–
COc1cccc(C2=C(Nc3ccc(SC)cc3)C(=O)NC2=O)c1 [SB-331032],17%,0%,31%,5%,28%,0%,0%,0%,–,–
Cc1ccc(C)c(Oc2nccc(-c3c(-c4ccc(F)cc4)ncn3C3CCNCC3)n2)c1.O=C(O)C(F)(F)F.O=C(O)C(F)(F)F.O=C(O)C(F)(F)F [SB-284852],0%,53%,14%,13%,20%,0%,100%,14%,–,–
O=C1NC(=O)C(c2ccccc2)=C1Nc1cc(Cl)c(O)c(Cl)c1 [SB-390530],0%,31%,0%,19%,3%,0%,10%,23%,–,–
COc1ccc(C2=C(Nc3cccc(Cl)c3)C(=O)NC2=O)cc1 [SB-326892],0%,10%,0%,1%,20%,0%,3%,20%,–,–
O=C1NC(=O)C(c2ccc(Cl)cc2)=C1Nc1cccc(C(=O)O)c1 [SB-360737],6%,5%,14%,15%,0%,6%,0%,6%,–,–
